Assay results as given in ChEMBL document CHEMBL4888484, “Replenishing the malaria drug discovery pipeline: Screening and hit evaluation of the MMV Hit Generation Library 1 (HGL1) against asexual blood stage Plasmodium falciparum ,using a nano luciferase reporter read-out” (2022).
The campaign covered roughly 150,000 compounds. About 540 (0.36%) showed an effect of 50% or more. Some of the results follow.

Each compound was assayed on Plasmodium falciparum (assay: Primary screen in NF54 nanoGlo assay, in single point, at 2uM, 72h; a lower Z score goes with more inhibition). Conditions: timepoint 72 hour.
Assay type: functional, Erythrocyte
In the case of N#CC1(NC(=O)c2cc(-c3cccnc3)nc3onc(C4CC4)c23)CC1, the “% Inhibition” value is reported as -11% and the Z score is reported as 1.36. For CCc1ccc(-c2nc(C)c(C(=O)N3CC[C@H](N)C3)s2)cc1, the “% Inhibition” value was -11% and the Z score was 1.19. O=C(NCc1ccc(C(=O)N2CCOCC2)cc1)c1ccc(F)cc1F was tested, and the “% Inhibition” value was -6% and the Z score was 0.78. O=C(O)CN1CCN(Cc2ccccc2)C2(CCCCC2)C1 was tested, and the “% Inhibition” value was -8% and the Z score was 0.85. Cc1c(C#N)c2ncnc(NCCCN3CCOCC3)c2n1-c1ccccc1 was tested, and the “% Inhibition” value was 2% and the Z score was -0.35. With CCN1CCC[C@@H]1Cn1ncc(N(C)C)cc1=O the “% Inhibition” value was -7% and the Z score was 0.7. Cc1nc(CCNC(=O)NC2CCCC2)no1 was tested, and the “% Inhibition” value was -12% and the Z score was 1.48. COCCC[C@H]1CCCN(c2nc(CO)cs2)C1 was tested, and the “% Inhibition” value was -5% and the Z score was 0.92. With O=C(CC1CCCC1)N[C@@H](Cc1ccccc1)c1ccccc1 the “% Inhibition” value was -12% and the Z score was 1.67. CC(C)c1ccc(NC(=O)CC[C@@H]2N=C(O)N(Cc3ccccc3)C2=O)cc1 was tested, and the “% Inhibition” value was 5% and the Z score was -0.63. Cc1ccn(CC(=O)NC[C@H](O)C(=O)OCc2ccccc2)n1 was tested, and the “% Inhibition” value was -4% and the Z score was 0.44. With Fc1ccc(CNc2nc(-c3ccsc3)ns2)cc1 the “% Inhibition” value was -9% and the Z score was 0.9. COC1CCN(C2CN(C(=O)c3ccc(Cl)s3)C2)CC1 was tested, and the “% Inhibition” value was -8% and the Z score was 1.54. Cc1cc(C(=O)N2CCN(Cc3ccccc3)C3(CCCCC3)C2)nn1C was tested, and the “% Inhibition” value was -6% and the Z score was 1.02. For CCc1nnsc1C(=O)N1CC(C)OC(C)C1 (stereo not given), the “% Inhibition” value was 8% and the Z score was -1.22. In the case of O=C(C[C@@]1(C(=O)O)CC(c2ccccc2Cl)=NO1)Nc1ccccc1, the “% Inhibition” value is reported as -30% and the Z score is reported as 3.54. In the case of C[C@@H](CN1CCOCC1)N1CCN(Cc2nccn2C(F)F)CC1, the “% Inhibition” value is reported as 2% and the Z score is reported as -0.37. With CCCOc1ccc(OC2CCCCC2NC(=O)N2CC[C@@]3(O)C[C@H]3C2)cc1 (stereo not given in full) the “% Inhibition” value was -10% and the Z score was 1.94. CCn1cnnc1CN(C)c1ccnc(C(=O)NCc2cccnc2)c1 was tested, and the “% Inhibition” value was 1% and the Z score was -0.22. With COc1cc(OC)nc(Oc2cccc(Cl)c2C(=O)NS(=O)(=O)c2cccnc2)n1 the “% Inhibition” value was -30% and the Z score was 3.48. C[C@H]1CCCN1C(=O)c1cccc(-c2nc(N(C)C)n(Cc3ccccc3)n2)c1 was tested, and the “% Inhibition” value was -8% and the Z score was 1.1. For COc1cc([C@H]2CC(=O)Nc3c2cnn3-c2nc3ccccc3s2)ccc1OCC(N)=O, the “% Inhibition” value was -3% and the Z score was 0.41. For Cc1ccc2nc(N(C)Cc3snnc3C)cc(C)c2c1, the “% Inhibition” value was 17% and the Z score was -2.22. In the case of COc1nc2c(cc1-c1nc(CC3CCN(C)CC3)nn1CCO)CCC2, the “% Inhibition” value is reported as 13% and the Z score is reported as -1.65. For O=C(c1csc(C(F)(F)F)n1)N1CCc2nc(-c3ccccc3Cl)sc2C1, the “% Inhibition” value was -11% and the Z score was 1.46. CCc1nccn1CCC(=O)N1CCc2[nH]c(-c3cccnc3)nc2C1 was tested, and the “% Inhibition” value was -7% and the Z score was 1.38. For Cc1cc(NCc2ccco2)c2nncn2n1, the “% Inhibition” value was -20% and the Z score was 3.95. In the case of Cc1cc(CNCCc2nccn2C)ccc1Cl, the “% Inhibition” value is reported as 9% and the Z score is reported as -1.46. For COc1ccc(N2CCN(C(=O)C(=O)c3cccn3C)CC2)cc1, the “% Inhibition” value was -20% and the Z score was 1.82. In the case of O=C(CCc1ccsc1)Nc1nncs1, the “% Inhibition” value is reported as -3% and the Z score is reported as 0.33. With CCCCn1nccc1NC(=O)N[C@H](c1cc(C)ccn1)C1CC1 the “% Inhibition” value was -16% and the Z score was 2.43. For CN(C)[C@H]1[C@H](Nc2ncc(F)c(N3CCOCC3)n2)[C@@H]2CCO[C@@H]21, the “% Inhibition” value was 0% and the Z score was 0.02. With Cc1cc(CNC(C)(C)c2c(C)noc2C)c2c(n1)CCCC2 the “% Inhibition” value was 4% and the Z score was -0.69. With O=C(Nc1cccc(C(F)(F)F)c1)C1(F)C(F)(F)C(F)(F)C(F)(F)C(F)(F)C1(F)F the “% Inhibition” value was 2% and the Z score was -0.22. With CNc1ncccc1C(=O)N1CCN(C)C(=O)C1 the “% Inhibition” value was -4% and the Z score was 0.53. OCC1(Cn2cnc(-c3ccccc3)c2-c2ccc3c(c2)OCCO3)CCOCC1 was tested, and the “% Inhibition” value was -12% and the Z score was 1.86. For CC1CCCCC1OCC(=O)Nc1cc(C(N)=O)c(F)cc1F (stereo not given), the “% Inhibition” value was -18% and the Z score was 1.96. CC(=O)Nc1cc2[nH]nnc2c2nn[nH]c12 was tested, and the “% Inhibition” value was 8% and the Z score was -1.58. Cc1ncccc1C(=O)N[C@H]1CC[C@H](Oc2ncc(F)cn2)CC1 was tested, and the “% Inhibition” value was -10% and the Z score was 1.13. With COc1ccc(S(=O)(=O)Nc2cn(C)cc(Br)c2=O)cc1OC the “% Inhibition” value was 11% and the Z score was -1.25. With OCc1nnn(-c2nc(-c3ccccc3)cc(C(F)(F)F)n2)c1CO the “% Inhibition” value was 0% and the Z score was -0.04. In the case of Cc1csc(CNC(=O)N[C@H](c2cccs2)C(C)(C)CO)n1, the “% Inhibition” value is reported as -5% and the Z score is reported as 0.61. In the case of CC(C)(C)[C@@H]1CCCN1Cc1ccncc1, the “% Inhibition” value is reported as -11% and the Z score is reported as 1.12. In the case of Cc1cccc(CS(=O)(=O)N2CCC[C@H](Oc3ncccn3)C2)c1, the “% Inhibition” value is reported as 6% and the Z score is reported as -0.87. With CNS(=O)(=O)[C@H]1CCN(Cc2cnc(C(C)(C)C)s2)C1 the “% Inhibition” value was 0% and the Z score was -0.02. With c1ccc(CNCc2ccc(COC3CCOCC3)cc2)nc1 the “% Inhibition” value was -17% and the Z score was 2.13. For CO[C@H]1C[C@@H](O)C12CCN(C(=O)CCc1n[nH]c(C)c1C)CC2, the “% Inhibition” value was -7% and the Z score was 1.49. With CNc1ncc(C(=O)N2C[C@@H]3CC[C@H]2CN(C2Cc4ccccc4C2)C3)cn1 the “% Inhibition” value was -3% and the Z score was 0.64. In the case of COc1ccccc1N1CCN(C(=O)C[C@@H]2NC(=O)NC2=O)CC1, the “% Inhibition” value is reported as 0% and the Z score is reported as 0.02. Cc1ccc(C(=O)NCCc2noc(C(F)(F)F)n2)s1 was tested, and the “% Inhibition” value was -12% and the Z score was 1.35. In the case of NC(=O)N1CCC[C@H]1C(=O)N1CCc2[nH]nc(C3CCC3)c2C1, the “% Inhibition” value is reported as -4% and the Z score is reported as 0.5. In the case of CC(C(=O)N(C)C(C)C)N1CCS(=O)(=O)C(C)C1 (stereo not given), the “% Inhibition” value is reported as -5% and the Z score is reported as 0.83. With CCc1nsc(N2C[C@@H](O)[C@@H](O)C2)n1 the “% Inhibition” value was -15% and the Z score was 1.84. In the case of Cc1cn2c(n1)[C@@H](CNC(=O)c1cn(C(C)C)cn1)CCC2, the “% Inhibition” value is reported as 0% and the Z score is reported as -0.04. For Cc1ccc(C(=O)N2CCC(c3ncon3)CC2)n1C(F)F, the “% Inhibition” value was -9% and the Z score was 0.75. For Cn1c(CNc2ccc(-n3ccnn3)cc2)nc2ccccc21, the “% Inhibition” value was -17% and the Z score was 2.54. For O=C1C[C@@H](c2ccccc2)n2nc(NC(=O)c3ccc4c(c3)OCO4)nc2N1, the “% Inhibition” value was -3% and the Z score was 0.32. In the case of Cc1nc[nH]c1-c1nccn1CCc1nc2c(s1)CCCC2, the “% Inhibition” value is reported as 6% and the Z score is reported as -1.17. In the case of CCOC(=O)N1CCc2c(nc(-c3ccc(C)cc3)n(CC(=O)NCc3ccccc3)c2=O)C1, the “% Inhibition” value is reported as 26% and the Z score is reported as -2.9. With O=C(NCC(=O)N1CCCC1)C(=O)Nc1ccc(O)cc1 the “% Inhibition” value was -3% and the Z score was 0.48. With C[C@H](NC(=O)c1cc(C2CC2)on1)c1ccc2c(c1)CC(=O)N2 the “% Inhibition” value was -4% and the Z score was 0.63. COCCNC(=O)Cn1c(N2CCc3ccccc3C2)nc(C)cc1=O was tested, and the “% Inhibition” value was 7% and the Z score was -0.93. In the case of CCCc1nnsc1C(=O)NC1CCN(c2cc3c(nn2)CCCC3)CC1, the “% Inhibition” value is reported as -17% and the Z score is reported as 2.85. Cc1cc(COC(=O)c2nccnc2-c2nc3ccccc3s2)no1 was tested, and the “% Inhibition” value was -4% and the Z score was 0.71. O=C(N[C@@H](Cn1cccn1)c1ccccc1)c1cc2ncc(CCO)cn2n1 was tested, and the “% Inhibition” value was -4% and the Z score was 0.44. With Cc1nn(C)c(Cl)c1-c1nc(-c2cnn(C)c2)no1 the “% Inhibition” value was -6% and the Z score was 0.89. With CCOCc1c(C(=O)Nc2cc(OCC)c(N3CCOCC3)cc2OCC)oc2ccccc12 the “% Inhibition” value was -5% and the Z score was 0.89. With CC1C(C)N(C(=O)OC(C)(C)C)CCN1C(=O)NCc1ccc2c(c1)OCO2 (stereo not given) the “% Inhibition” value was -16% and the Z score was 2.92. In the case of CCCN1CCN(C2CCN(Cc3ncc(C)o3)CC2)CC1, the “% Inhibition” value is reported as -14% and the Z score is reported as 2.72. CCn1cc(C(=O)N2CCC[C@H](N(CCCN3CCCC3)C(=O)C(C)C)C2)c(C)n1 was tested, and the “% Inhibition” value was 7% and the Z score was -1.16. With Cc1cc(C(F)(F)F)nc(C(=O)N[C@H](c2ccncc2)C2CC2)n1 the “% Inhibition” value was -10% and the Z score was 1.42. CCS(=O)(=O)NCCCN(C)c1ccc(F)c(F)c1 was tested, and the “% Inhibition” value was -5% and the Z score was 0.49. In the case of Cc1nnsc1C(=O)Nc1ccc(OCC(C)C)nc1, the “% Inhibition” value is reported as -20% and the Z score is reported as 2.77. C=CCn1c(C)c(CC(=O)NCc2ccccc2F)c(=O)n2nc(-c3ccc(C)cc3)nc12 was tested, and the “% Inhibition” value was 5% and the Z score was -0.57. For Cc1ccccc1[C@H]1CN(C(=O)CCCn2ccnc2C)C[C@@H]1C(=O)O, the “% Inhibition” value was -10% and the Z score was 1.26. In the case of Cc1ccc(OCc2c(C(=O)N3CCCCCC3)c(=O)cc(C)n2CCN2CCOCC2)cc1, the “% Inhibition” value is reported as -4% and the Z score is reported as 0.4. With Cc1noc(C)c1CC(=O)N[C@H]1CCc2nn(C)c(=O)n2CC1 the “% Inhibition” value was -10% and the Z score was 1.61. For Cc1ccccc1CNC(=O)c1ccc(N2CCc3ccccc32)s1, the “% Inhibition” value was -16% and the Z score was 2.14. For CCc1ccc(CN2CCC([C@H](O)c3cccs3)CC2)nc1, the “% Inhibition” value was -10% and the Z score was 1.42. Cn1nnc(NC(=O)[C@@H]2C[C@]2(C)c2ccccc2)c1C(F)F was tested, and the “% Inhibition” value was 1% and the Z score was -0.26. With COc1ccc([C@H](C)N2CCC(n3cncn3)CC2)cc1Cl the “% Inhibition” value was -2% and the Z score was 0.25. In the case of Cc1c(C#N)nn(-c2cccnc2)c1NC(=O)COC[C@H]1CCCO1, the “% Inhibition” value is reported as 1% and the Z score is reported as -0.15. For CC(C)(C#N)c1ccc(-c2ccc3[nH]c(CO)nc3c2)cc1, the “% Inhibition” value was -3% and the Z score was 0.63. With CN(CCC#N)C(=O)COc1ccc(Br)cc1Br the “% Inhibition” value was -10% and the Z score was 1.27. For CCc1ncc(CN(C)C[C@H]2OCCN(C)[C@@H]2c2cnn(C)c2)o1, the “% Inhibition” value was -8% and the Z score was 0.99.
